Experimental data as given in PubChem BioAssay (Tox21).
Values joined by “and” are separate entries in the source; they are usually repeats but may differ in a detail not shown here. Equal entries are not always repeated. This list was built around the results that the source calls inconclusive (neither active nor inactive); the mix of calls is not that of the screen. For part of these data: A potency beside an inconclusive call is a rough fit, not a confirmed value. Active and inactive are the calls of the source. Unless noted, the call rests on the fitted dose curve; in most records, active means well fitted curve in the direction sought with a large enough effect in the repeat runs; inconclusive means weak or mixed curves; inactive means no such curve, though single readings can be large; an effect the other way counts as inactive or inconclusive.

How the values were obtained:
[1] = qHTS assay to identify small molecule antagonists of the estrogen receptor alpha (ER-alpha) signaling pathway using the BG1 cell line in the presence of 0.1 nM 17-beta-estradiol - cell viability counter screen (AID 1259241); further: nearly all actives have a fitted effect of over 40% in size
Summary of the method: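 VM7Luc4E2 cells (endogenous ER-alpha, 4×ERE-luciferase), hormone-starved 5 days in charcoal-stripped FBS, were treated with compounds plus 0.1 nM 17beta-estradiol for 22 hr at 37C; viability read in same wells as CellTiter-Fluor live-cell protease fluorescence.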

[2] = qHTS assay to identify small molecule phospholipidosis (PLD) inducers (AID 1259344; active means well fitted curve in the direction sought with a large enough effect; inconclusive means small, poorly fitted or top-dose-only effect, or another doubt; inactive means no such curve, though single readings can be large; an effect the other way counts as inactive or inconclusive)
Summary of the method: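 HepG2 cells on collagen I, attached 4 h at 37 C, were co-treated with compound and LipidTOX Red dye for 24 h at 37 C, then fixed with paraformaldehyde plus Hoechst 33342 and imaged by high-content microscopy for phospholipid accumulation.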

[3] = qHTS assay to identify small molecule agonists of the sonic hedgehog signaling (Shh) pathway - cell viability counter screen (AID 1259366); further: nearly all actives have a fitted effect of over 50% in size
Summary of the method: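 NIH/3T3-derived 3T3 Gli1-Luc cells (stable Gli1-responsive firefly luciferase reporter) were seeded, rested 4 hr at 37 C/5% CO2, then exposed to compounds in DMSO for 24 hr; viability was read by CellTiter-Fluor fluorescence in the same wells.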

[4] = qHTS assay to identify small molecule antagonists of the sonic hedgehog signaling (Shh) pathway - cell viability counter screen (AID 1259367); further: nearly all actives have a fitted effect of over 55% in size
Summary of the method: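 NIH/3T3-derived Gli1-Luc reporter cells (2,000 per well) rested 4 hr at 37 C, then received DMSO compounds plus conditioned medium. After 23 hr of treatment, CellTiter-Fluor was added for 1 hr at 37C and fluorescence read.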

[5] = qHTS assay to identify small molecule antagonists of the sonic hedgehog signaling (Shh) pathway (AID 1259369; calls by dose curve; further: nearly all actives have a fitted effect of over 45% in size)
Summary of the method: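 Inhibition of Shh signalling is measured as reduced Gli1-response-element firefly luciferase output in an NIH/3T3-derived stable reporter clone stimulated with conditioned medium for 24hr.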

[6] = biological target: Estrogen receptor beta (Homo sapiens) (UniProt Q92731); test: qHTS assay to identify small molecule antagonists of the estrogen receptor beta (ER-beta) signaling pathway (AID 1259378; active means well fitted inhibition curve with a large enough effect in the signal ratio in the repeat runs, not every such curve was filed as active; inconclusive means weak or mixed curves, or effect the other way; inactive means no such curve, though single readings can be large or run the other way; the % refers to the signal ratio; on activity, negative = inhibition: on the % scale 0 is the no-effect control and ±100 the full control effect); details: ER-beta-UAS-bla HEK293T, beta-lactamase FRET ratio, 16 h; activity, negative = inhibition: at 92.4 µM (top of the series) unless noted
Chain of UniProt Q92731 (Q92731 whole entry, looked up): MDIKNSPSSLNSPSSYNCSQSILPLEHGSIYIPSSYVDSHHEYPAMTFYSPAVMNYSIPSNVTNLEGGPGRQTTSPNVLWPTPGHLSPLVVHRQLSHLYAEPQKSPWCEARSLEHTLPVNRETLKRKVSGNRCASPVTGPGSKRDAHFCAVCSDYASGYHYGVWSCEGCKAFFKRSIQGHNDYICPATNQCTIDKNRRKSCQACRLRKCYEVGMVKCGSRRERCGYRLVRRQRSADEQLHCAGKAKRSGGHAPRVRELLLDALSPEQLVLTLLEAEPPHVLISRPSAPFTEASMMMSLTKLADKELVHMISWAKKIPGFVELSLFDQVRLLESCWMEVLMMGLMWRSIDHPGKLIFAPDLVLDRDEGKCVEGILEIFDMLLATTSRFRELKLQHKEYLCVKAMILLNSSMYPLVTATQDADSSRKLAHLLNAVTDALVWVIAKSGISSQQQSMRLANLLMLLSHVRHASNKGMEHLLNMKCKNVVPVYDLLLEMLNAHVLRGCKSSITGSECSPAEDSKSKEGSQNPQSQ
Summary of the method: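 ER-beta-UAS-bla HEK293T (GripTite) cells in 2% charcoal-stripped FBS medium were preincubated 6 hr at 37C, dosed with compound, then stimulated with 1 nM E2 (final) for 16 hr; beta-lactamase reporter read by B/G FRET fluorescence after 2 hr substrate loading.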

[7] = qHTS assay to identify small molecule agonists of the estrogen receptor beta (ER-beta) signaling pathway - cell viability counter screen (AID 1259380); further: nearly all actives have a fitted effect of over 30% in size
Summary of the method: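 Same-well viability counter screen. Cells: ER-beta-UAS-bla HEK293T, plated 6 hr before compound, in 2% charcoal-stripped FBS. Compound exposure 16 hr, 37C; viability by CellTiter-Glo luminescence after 30 min at room temperature.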

[8] = qHTS assay to identify small molecule antagonists of the estrogen receptor beta (ER-beta) signaling pathway - cell viability counter screen (AID 1259382); further: nearly all actives have a fitted effect of over 55% in size
Summary of the method: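 Following a 6 hr plating period, HEK293T cells carrying a UAS-driven beta-lactamase reporter under ER-beta control received compounds and 1nM E2 (final). After 16 hr at 37C and 2 hr substrate loading, CellTiter-Glo luminescence indicated viability.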

[9] = biological target: Estrogen receptor (Homo sapiens) (UniProt P03372); test: qHTS assay to identify small molecule antagonists of the estrogen receptor alpha (ER-alpha) signaling pathway using the BG1 cell line in the presence of 0.1 nM 17-beta-estradiol (AID 1259244); further: nearly all actives have a fitted effect of over 50% in size
Chain of UniProt P03372 (P03372 whole entry, looked up): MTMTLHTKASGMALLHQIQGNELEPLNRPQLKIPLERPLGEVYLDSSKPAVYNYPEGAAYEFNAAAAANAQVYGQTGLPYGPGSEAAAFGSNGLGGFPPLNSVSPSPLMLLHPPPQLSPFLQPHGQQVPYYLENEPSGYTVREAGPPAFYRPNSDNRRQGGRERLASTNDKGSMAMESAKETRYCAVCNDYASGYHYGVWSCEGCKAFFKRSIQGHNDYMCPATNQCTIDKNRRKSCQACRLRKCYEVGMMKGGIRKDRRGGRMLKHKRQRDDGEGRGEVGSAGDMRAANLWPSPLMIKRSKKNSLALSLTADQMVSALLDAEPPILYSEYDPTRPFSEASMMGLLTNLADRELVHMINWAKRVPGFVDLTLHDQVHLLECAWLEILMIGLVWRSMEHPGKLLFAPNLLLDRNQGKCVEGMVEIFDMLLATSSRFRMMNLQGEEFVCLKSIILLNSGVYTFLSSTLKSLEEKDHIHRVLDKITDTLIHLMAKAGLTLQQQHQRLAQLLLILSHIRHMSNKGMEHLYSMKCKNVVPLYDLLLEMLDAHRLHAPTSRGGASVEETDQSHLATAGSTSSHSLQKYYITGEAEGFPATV
Summary of the method: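 After 5 days in hormone-depleted medium (charcoal-stripped serum, no phenol red), VM7Luc4E2 cells were seeded, incubated 24 h, then co-treated with compound and 0.1 nM (final) estradiol for 22 h before luminescence detection.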

[10] = biological target: Estrogen receptor beta (Homo sapiens) (UniProt Q92731); test: qHTS assay to identify small molecule agonists of the estrogen receptor beta (ER-beta) signaling pathway (AID 1259377; active means well fitted activation curve with a large enough effect in the signal ratio in the repeat runs, not every such curve was filed as active; inconclusive means weak or mixed curves, or effect the other way; the % refers to the signal ratio); details: ER-beta-UAS-bla HEK293T, beta-lactamase FRET ratio, 16 h; activation: at 92.4 µM (top of the series) unless noted
Summary of the method: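 ER-beta-UAS-bla HEK293T (GripTite) cells carrying a UAS-driven beta-lactamase reporter, in medium with 2% charcoal-stripped FBS, were exposed to compounds for 16 hr at 37C; LiveBLAzer B/G FRET substrate was then added and fluorescence read after 2 hours at room temperature.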

[11] = qHTS assay to identify small molecule agonists of the androgen receptor (AR) signaling pathway in the presence of an antagonist - cell viability counter screen (AID 1259379); further: nearly all actives have a fitted effect of over 25% in size
Summary of the method: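 Fluorescence from CellTiter-Fluor, added after 15 hr and read 1 hr later, gave cell viability. Cells were MDA-kb2 exposed to compounds (15 concentrations) in the presence of 3.0uM nilutamide at 37C, 0% CO2.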

[12] = qHTS assay to identify small molecule agonists of the sonic hedgehog signaling (Shh) pathway (AID 1259368; calls by dose curve; further: nearly all actives have a fitted effect of over 15% in size)
Summary of the method: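 Steps: seed 3T3 Gli1-Luc cells, incubate 4 hr at 37 C, pin-transfer compounds in DMSO alongside a positive control, incubate 24 hr, add luciferase detection reagent, wait 30 min at room temperature, read luminescence.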
Potency means the concentration at half of the fitted maximal effect; tags describe the fitted curve by direction and shape or compound fluorescence and quenching.

CCCCN(CCCC)CC(O)c1cc(Cl)cc2c1-c1ccc(Cl)cc1/C2=C/c1ccc(Cl)cc1 (stereo not drawn)
active: Potency [3] 26.6 µM | Potency [7] 29.8 µM
inconclusive: Potency [1] 33.5 µM [cytotoxic, single point] | Potency [2] 20 µM [activator, single point] | Potency [4] 21.1 µM [cytotoxic, partial curve] | Potency [5] 16.8 µM [inhibitor, full curve] | activity, negative = inhibition [6] -19.6% [at 42.5 µM] | Potency [8] 21.1 µM [cytotoxic, partial curve]

COC1=C(OC)C(=O)C(CCCCCCCCCCO)=C(C)C1=O
inconclusive: Potency [1] 33.5 µM [cytotoxic, partial curve, poor fit] | Potency [9] 33.5 µM [inhibitor, single point] | Potency [10] 23.7 µM [rising, partial curve] | Potency [6] 23.7 µM [partial curve] | Potency [11] 29.8 µM [cytotoxic, partial curve]
active: Potency [8] 23.7 µM

O=c1cc(-c2ccc(O)cc2)oc2cc(O)cc(O)c12
inconclusive: Potency [1] 61.9 µM [cytotoxic, single point] | Potency [4] 69.5 µM [cytotoxic, single point] | Potency [12] 77 µM [activator, single point] | Potency [11] 69.5 µM [cytotoxic, single point] and 54.5 µM [cytotoxic, partial curve]
